# In the supplement of paper PMC8728848:
# The other results are listed elsewhere or left out.
# Experiments:
# Test in all cases: glycan array binding signal (z-score within array); higher = stronger binding
# Settings in all cases: glycan notation: IUPAC condensed, linker removed
# [1] = molecular target: Neu5Ac(a2-3)Gal(b1-4)[Fuc(a1-3)]GlcNAc
# Outline: (§1)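 Glycan array data were curated from 3228 arrays in the Consortium for Functional Glycomics database and kept only where the protein sequence was available. Glycan names were converted to IUPAC-condensed notation, and columns mapping to the same glycan were averaged. The binding signal is a within-array Z-score, averaged across arrays of the same protein sequence at different concentrations or buffers and across linkers. Negative Z-scores can be read as non-binding.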
# [2] = molecular target: Neu5Ac(a2-3)Gal(b1-4)[Fuc(a1-3)]GlcNAc(b1-3)Gal
# Outline: as §1
# [3] = molecular target: Neu5Ac(a2-3)Gal(b1-4)[Fuc(a1-3)]GlcNAc(b1-3)Gal(b1-4)GlcNAc
# Outline: as §1
# [4] = molecular target: Neu5Ac(a2-3)Gal(b1-4)[Fuc(a1-3)]GlcNAc(b1-3)Gal(b1-4)[Fuc(a1-3)]GlcNAc(b1-3)Gal(b1-4)[Fuc(a1-3)]GlcNAc
# Outline: as §1
# [5] = molecular target: Neu5Ac(a2-3)Gal(b1-4)[Fuc(a1-3)]GlcNAc(b1-6)[Gal(b1-3)]GalNAc
# Outline: as §1
# [6] = molecular target: Neu5Ac(a2-3)Gal(b1-4)[Fuc(a1-3)]GlcNAc(b1-6)[Neu5Ac(a2-3)Gal(b1-3)]GalNAc
# Outline: as §1
# [7] = molecular target: Neu5Ac(a2-3)Gal(b1-4)[Fuc(a1-3)]GlcNAc6S
# Outline: as §1
# [8] = molecular target: Neu5Ac(a2-3)Gal6S(b1-4)GlcNAc
# Outline: as §1
# [9] = molecular target: Neu5Ac(a2-3)Gal6S(b1-4)[Fuc(a1-3)]GlcNAc
# Outline: as §1
# [10] = molecular target: Neu5Ac(a2-3)GalNAc
# Outline: as §1
# [11] = molecular target: Neu5Ac(a2-3)GalNAc(b1-4)GlcNAc
# Outline: as §1
# [12] = molecular target: Neu5Ac(a2-3)[GalNAc(b1-4)]Gal(b1-4)Glc
# Outline: as §1
# [13] = molecular target: Neu5Ac(a2-3)[GalNAc(b1-4)]Gal(b1-4)GlcNAc
# Outline: as §1
# [14] = molecular target: Neu5Ac(a2-3)[Neu5Ac(a2-6)]GalNAc
# Outline: as §1
# [15] = molecular target: Neu5Ac(a2-6)Gal
# Outline: as §1
# [16] = molecular target: Neu5Ac(a2-6)Gal(b1-4)Glc
# Outline: as §1
# [17] = molecular target: Neu5Ac(a2-6)Gal(b1-4)GlcNAc
# Outline: as §1
# [18] = molecular target: Neu5Ac(a2-6)Gal(b1-4)GlcNAc(b1-2)Man(a1-3)Man(b1-4)GlcNAc(b1-4)GlcNAc
# Outline: as §1
# [19] = molecular target: Neu5Ac(a2-6)Gal(b1-4)GlcNAc(b1-2)Man(a1-3)[Gal(b1-4)GlcNAc(b1-2)Man(a1-6)]Man(b1-4)GlcNAc(b1-4)GlcNAc
# Outline: as §1
# [20] = molecular target: Neu5Ac(a2-6)Gal(b1-4)GlcNAc(b1-2)Man(a1-3)[GlcNAc(b1-2)Man(a1-6)]Man(b1-4)GlcNAc(b1-4)GlcNAc
# Outline: as §1
# [21] = molecular target: Neu5Ac(a2-6)Gal(b1-4)GlcNAc(b1-2)Man(a1-3)[GlcNAc(b1-2)Man(b1-4)GlcNAc(b1-2)Man(a1-6)]Man(b1-4)GlcNAc(b1-4)GlcNAc
# Outline: as §1
# [22] = molecular target: Neu5Ac(a2-6)Gal(b1-4)GlcNAc(b1-2)Man(a1-3)[Man(a1-6)]Man(b1-4)GlcNAc(b1-4)GlcNAc
# Outline: as §1
# [23] = molecular target: Neu5Ac(a2-6)Gal(b1-4)GlcNAc(b1-2)Man(a1-3)[Neu5Ac(a2-6)Gal(b1-4)GlcNAc(b1-2)Man(a1-6)]Man(b1-4)GlcNAc(b1-4)GlcNAc
# Outline: as §1
# [24] = molecular target: Neu5Ac(a2-6)Gal(b1-4)GlcNAc(b1-2)Man(a1-6)Man(b1-4)GlcNAc(b1-4)GlcNAc
# Outline: as §1
# [25] = molecular target: Neu5Ac(a2-6)Gal(b1-4)GlcNAc(b1-2)Man(a1-6)[Gal(b1-4)GlcNAc(b1-2)Man(a1-3)]Man(b1-4)GlcNAc(b1-4)GlcNAc
# Outline: as §1
# [26] = molecular target: Neu5Ac(a2-6)Gal(b1-4)GlcNAc(b1-2)Man(a1-6)[GlcNAc(b1-2)Man(a1-3)]Man(b1-4)GlcNAc(b1-4)GlcNAc
# Outline: as §1
# [27] = molecular target: Neu5Ac(a2-6)Gal(b1-4)GlcNAc(b1-2)Man(a1-6)[Man(a1-3)]Man(b1-4)GlcNAc(b1-4)GlcNAc
# Outline: as §1
# [28] = molecular target: Neu5Ac(a2-6)Gal(b1-4)GlcNAc(b1-3)Gal(b1-3)GlcNAc
# Outline: as §1
# [29] = molecular target: Neu5Ac(a2-6)Gal(b1-4)GlcNAc(b1-3)Gal(b1-4)GlcNAc
# Outline: as §1
# [30] = molecular target: Neu5Ac(a2-6)Gal(b1-4)GlcNAc(b1-3)Gal(b1-4)GlcNAc(b1-3)Gal(b1-4)GlcNAc
# Outline: as §1
# [31] = molecular target: Neu5Ac(a2-6)Gal(b1-4)GlcNAc(b1-3)Gal(b1-4)[Fuc(a1-3)]GlcNAc(b1-3)Gal(b1-4)[Fuc(a1-3)]GlcNAc
# Outline: as §1
# [32] = molecular target: Neu5Ac(a2-6)Gal(b1-4)GlcNAc(b1-3)GalNAc
# Outline: as §1
# [33] = molecular target: Neu5Ac(a2-6)Gal(b1-4)GlcNAc6S
# Outline: as §1
# [34] = molecular target: Neu5Ac(a2-6)GalNAc
# Outline: as §1
# [35] = molecular target: Neu5Ac(a2-6)GalNAc(b1-4)GlcNAc
# Outline: as §1
# [36] = molecular target: Neu5Ac(a2-6)GlcNAc(b1-4)GlcNAc
# Outline: as §1
# [37] = molecular target: Neu5Ac(a2-6)GlcNAc(b1-4)GlcNAc(b1-4)GlcNAc
# Outline: as §1
# [38] = molecular target: Neu5Ac(a2-8)Neu5Ac
# Outline: as §1
# [39] = molecular target: Neu5Ac(a2-8)Neu5Ac(a2-3)Gal(b1-4)Glc
# Outline: as §1
# [40] = molecular target: Neu5Ac(a2-8)Neu5Ac(a2-3)[GalNAc(b1-4)]Gal(b1-4)Glc
# Outline: as §1
# [41] = molecular target: Neu5Ac(a2-8)Neu5Ac(a2-8)Neu5Ac
# Outline: as §1
# [42] = molecular target: Neu5Ac(a2-8)Neu5Ac(a2-8)Neu5Ac(a2-3)Gal(b1-4)Glc
# Outline: as §1
# [43] = molecular target: Neu5Ac(a2-8)Neu5Ac(a2-8)Neu5Ac(a2-3)[GalNAc(b1-4)]Gal(b1-4)Glc
# Outline: as §1
# [44] = molecular target: Neu5Ac(a2-8)Neu5Ac(a2-8)Neu5Ac(a2-8)Neu5Ac(a2-3)[GalNAc(b1-4)]Gal(b1-4)Glc
# Outline: as §1
# [45] = molecular target: Neu5Ac(b2-6)Gal(b1-4)GlcNAc
# Outline: as §1
# [46] = molecular target: Neu5Ac(b2-6)GalNAc
# Outline: as §1
# [47] = molecular target: Neu5Ac9Ac(a2-3)Gal(b1-3)GlcNAc
# Outline: as §1
# [48] = molecular target: Neu5Ac9Ac(a2-3)Gal(b1-4)GlcNAc
# Outline: as §1
# [49] = molecular target: Neu5Ac9Ac(a2-6)Gal(b1-4)GlcNAc
# Outline: as §1
# [50] = molecular target: Neu5Gc(a2-3)Gal(b1-3)GlcNAc
# Outline: as §1
# [51] = molecular target: Neu5Gc(a2-3)Gal(b1-3)[Fuc(a1-4)]GlcNAc
# Outline: as §1
# [52] = molecular target: Neu5Gc(a2-3)Gal(b1-4)Glc
# Outline: as §1
# [53] = molecular target: Neu5Gc(a2-3)Gal(b1-4)GlcNAc
# Outline: as §1
# [54] = molecular target: Neu5Gc(a2-3)Gal(b1-4)[Fuc(a1-3)]GlcNAc
# Outline: as §1
# [55] = molecular target: Neu5Gc(a2-6)Gal(b1-4)GlcNAc
# Outline: as §1
# [56] = molecular target: Neu5Gc(a2-6)GalNAc
# Outline: as §1
# [57] = molecular target: Neu5Gc(b2-6)Gal(b1-4)GlcNAc
# Outline: as §1
binder,measurement,setting,value
"DC-SIGN (Canis lupus), XP_853402 (protein) AGLCRPCPWKWELFQESCYFFSQTQNTWKESISACQNLRAQLVIINSTEEQKFLKSWNTRNNQRTWIGLSDHHNEGSWKWVDNTPLQLSFWKEGEPNNHGDEDCVELYSDGWNDNRCSTENFWICKKPSSPCPGPGLNDIFEAQKIEWHE",glycan array binding signal (z-score),[1],-0.257
same,glycan array binding signal (z-score),[2],-0.254
same,glycan array binding signal (z-score),[3],0.258
same,glycan array binding signal (z-score),[4],-0.279
same,glycan array binding signal (z-score),[5],-0.407
same,glycan array binding signal (z-score),[6],-0.1
same,glycan array binding signal (z-score),[7],-0.148
same,glycan array binding signal (z-score),[8],-0.189
same,glycan array binding signal (z-score),[9],-0.072
same,glycan array binding signal (z-score),[10],-0.29
same,glycan array binding signal (z-score),[11],-0.325
same,glycan array binding signal (z-score),[12],-0.111
same,glycan array binding signal (z-score),[13],-0.085
same,glycan array binding signal (z-score),[14],-0.263
same,glycan array binding signal (z-score),[15],-0.074
same,glycan array binding signal (z-score),[16],-0.327
same,glycan array binding signal (z-score),[17],-0.202
same,glycan array binding signal (z-score),[18],-0.175
same,glycan array binding signal (z-score),[19],-0.188
same,glycan array binding signal (z-score),[20],-0.068
same,glycan array binding signal (z-score),[21],-0.249
same,glycan array binding signal (z-score),[22],-0.258
same,glycan array binding signal (z-score),[23],-0.244
same,glycan array binding signal (z-score),[24],-0.247
same,glycan array binding signal (z-score),[25],-0.013
same,glycan array binding signal (z-score),[26],-0.211
same,glycan array binding signal (z-score),[27],-0.296
same,glycan array binding signal (z-score),[28],-0.302
same,glycan array binding signal (z-score),[29],-0.327
same,glycan array binding signal (z-score),[30],-0.331
same,glycan array binding signal (z-score),[31],-0.169
same,glycan array binding signal (z-score),[32],-0.263
same,glycan array binding signal (z-score),[33],-0.341
same,glycan array binding signal (z-score),[34],-0.217
same,glycan array binding signal (z-score),[35],-0.281
same,glycan array binding signal (z-score),[36],-0.227
same,glycan array binding signal (z-score),[37],-0.347
same,glycan array binding signal (z-score),[38],0.015
same,glycan array binding signal (z-score),[39],-0.228
same,glycan array binding signal (z-score),[40],-0.062
same,glycan array binding signal (z-score),[41],-0.312
same,glycan array binding signal (z-score),[42],-0.292
same,glycan array binding signal (z-score),[43],0.226
same,glycan array binding signal (z-score),[44],0.169
same,glycan array binding signal (z-score),[45],-0.361
same,glycan array binding signal (z-score),[46],-0.264
same,glycan array binding signal (z-score),[47],-0.346
same,glycan array binding signal (z-score),[48],1.02
same,glycan array binding signal (z-score),[49],0.058
same,glycan array binding signal (z-score),[50],-0.15
same,glycan array binding signal (z-score),[51],-0.101
same,glycan array binding signal (z-score),[52],-0.065
same,glycan array binding signal (z-score),[53],-0.237
same,glycan array binding signal (z-score),[54],-0.319
same,glycan array binding signal (z-score),[55],-0.011
same,glycan array binding signal (z-score),[56],-0.273
same,glycan array binding signal (z-score),[57],0.006
